# Laboratory results as given in the supplement of paper PMC8728848.
# The other results are listed elsewhere or left out.
# What was measured:
# Assay in all cases: glycan array binding signal (z-score within array); higher = stronger binding
# Settings in all cases: glycan notation: IUPAC condensed, linker removed
# Gal(b1-3)Gal = molecular target: Gal(b1-3)Gal
# In short: (§1)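 From the Consortium for Functional Glycomics database, 3228 arrays were curated, keeping only those whose protein sequence was available. Binding is given as a within-array Z-score averaged across arrays sharing a protein sequence and across linkers. Negative Z-scores can be read as non-binding.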
# Gal(b1-3)Gal(b1-4)GlcNAc = molecular target: Gal(b1-3)Gal(b1-4)GlcNAc
# In short: as §1
# [1] = molecular target: Gal(b1-3)Gal(b1-4)GlcNAc(b1-2)Man(a1-3)[Gal(b1-3)Gal(b1-4)GlcNAc(b1-2)Man(a1-6)]Man(b1-4)GlcNAc(b1-4)GlcNAc
# In short: as §1
# Gal(b1-3)GalNAc = molecular target: Gal(b1-3)GalNAc
# In short: as §1
# [2] = molecular target: Gal(b1-3)GalNAc(a1-3)[Fuc(a1-2)]Gal(b1-4)Glc
# In short: as §1
# [3] = molecular target: Gal(b1-3)GalNAc(a1-3)[Fuc(a1-2)]Gal(b1-4)GlcNAc
# In short: as §1
# [4] = molecular target: Gal(b1-3)GalNAc(b1-3)Gal(a1-4)Gal(b1-4)Glc
# In short: as §1
# [5] = molecular target: Gal(b1-3)GalNAc(b1-4)Gal(b1-4)Glc
# In short: as §1
# [6] = molecular target: Gal(b1-3)GalNAc(b1-4)[Neu5Ac(a2-3)]Gal(b1-4)Glc
# In short: as §1
# Gal(b1-3)GlcNAc = molecular target: Gal(b1-3)GlcNAc
# In short: as §1
# [7] = molecular target: Gal(b1-3)GlcNAc(b1-2)Man(a1-3)[Gal(b1-3)GlcNAc(b1-2)Man(a1-6)]Man(b1-4)GlcNAc(b1-4)GlcNAc
# In short: as §1
# [8] = molecular target: Gal(b1-3)GlcNAc(b1-2)Man(a1-3)[Gal(b1-3)GlcNAc(b1-2)Man(a1-6)]Man(b1-4)GlcNAc(b1-4)[Fuc(a1-6)]GlcNAc
# In short: as §1
# [9] = molecular target: Gal(b1-3)GlcNAc(b1-3)Gal(b1-3)GlcNAc
# In short: as §1
# [10] = molecular target: Gal(b1-3)GlcNAc(b1-3)Gal(b1-4)Glc
# In short: as §1
# [11] = molecular target: Gal(b1-3)GlcNAc(b1-3)Gal(b1-4)GlcNAc
# In short: as §1
# [12] = molecular target: Gal(b1-3)[Fuc(a1-4)]GlcNAc
# In short: as §1
# [13] = molecular target: Gal(b1-3)[Fuc(a1-4)]GlcNAc(b1-2)Man(a1-3)[Gal(b1-3)[Fuc(a1-4)]GlcNAc(b1-2)Man(a1-6)]Man(b1-4)GlcNAc(b1-4)GlcNAc
# In short: as §1
# [14] = molecular target: Gal(b1-3)[Fuc(a1-4)]GlcNAc(b1-2)Man(a1-3)[Gal(b1-3)[Fuc(a1-4)]GlcNAc(b1-2)Man(a1-6)]Man(b1-4)GlcNAc(b1-4)[Fuc(a1-6)]GlcNAc
# In short: as §1
# [15] = molecular target: Gal(b1-3)[Fuc(a1-4)]GlcNAc(b1-3)Gal(b1-3)[Fuc(a1-4)]GlcNAc
# In short: as §1
# [16] = molecular target: Gal(b1-3)[Fuc(a1-4)]GlcNAc(b1-3)Gal(b1-4)GlcNAc
# In short: as §1
# [17] = molecular target: Gal(b1-3)[Fuc(a1-4)]GlcNAc(b1-3)Gal(b1-4)[Fuc(a1-3)]GlcNAc
# In short: as §1
# [18] = molecular target: Gal(b1-3)[GlcNAc(b1-6)]GalNAc
# In short: as §1
# [19] = molecular target: Gal(b1-3)[Neu5Ac(a2-6)]GalNAc
# In short: as §1
# [20] = molecular target: Gal(b1-3)[Neu5Ac(a2-6)]GlcNAc(b1-6)Gal(b1-4)Glc
# In short: as §1
# [21] = molecular target: Gal(b1-3)[Neu5Ac(b2-6)]GalNAc
# In short: as §1
# [22] = molecular target: Gal(b1-4)GalNAc(a1-3)[Fuc(a1-2)]Gal(b1-4)GlcNAc
# In short: as §1
# [23] = molecular target: Gal(b1-4)GalNAc(b1-3)[Fuc(a1-2)]Gal(b1-4)GlcNAc
# In short: as §1
# Gal(b1-4)Glc = molecular target: Gal(b1-4)Glc
# In short: as §1
# Gal(b1-4)Glc6S = molecular target: Gal(b1-4)Glc6S
# In short: as §1
# Gal(b1-4)GlcNAc = molecular target: Gal(b1-4)GlcNAc
# In short: as §1
# [24] = molecular target: Gal(b1-4)GlcNAc(a1-6)Gal(b1-4)GlcNAc
# In short: as §1
# [25] = molecular target: Gal(b1-4)GlcNAc(b1-2)Man(a1-3)Man(b1-4)GlcNAc(b1-4)GlcNAc
# In short: as §1
# [26] = molecular target: Gal(b1-4)GlcNAc(b1-2)Man(a1-3)[Gal(b1-4)GlcNAc(b1-2)Man(a1-6)]Man(b1-4)GlcNAc(b1-4)GlcNAc
# In short: as §1
# [27] = molecular target: Gal(b1-4)GlcNAc(b1-2)Man(a1-3)[Gal(b1-4)GlcNAc(b1-2)Man(a1-6)]Man(b1-4)GlcNAc(b1-4)[Fuc(a1-6)]GlcNAc
# In short: as §1
# [28] = molecular target: Gal(b1-4)GlcNAc(b1-2)Man(a1-3)[Man(a1-6)]Man(b1-4)GlcNAc(b1-4)GlcNAc
# In short: as §1
# [29] = molecular target: Gal(b1-4)GlcNAc(b1-2)Man(a1-6)Man(b1-4)GlcNAc(b1-4)GlcNAc
# In short: as §1
# [30] = molecular target: Gal(b1-4)GlcNAc(b1-2)Man(a1-6)[Man(a1-3)]Man(b1-4)GlcNAc(b1-4)GlcNAc
# In short: as §1
# [31] = molecular target: Gal(b1-4)GlcNAc(b1-2)[Gal(b1-4)GlcNAc(b1-4)]Man(a1-3)[Gal(b1-4)GlcNAc(b1-2)Man(a1-6)]Man(b1-4)GlcNAc(b1-4)GlcNAc
# In short: as §1
# [32] = molecular target: Gal(b1-4)GlcNAc(b1-3)Gal(b1-3)GlcNAc
# In short: as §1
# [33] = molecular target: Gal(b1-4)GlcNAc(b1-3)Gal(b1-4)Glc
# In short: as §1
# [34] = molecular target: Gal(b1-4)GlcNAc(b1-3)Gal(b1-4)GlcNAc
# In short: as §1
# [35] = molecular target: Gal(b1-4)GlcNAc(b1-3)Gal(b1-4)GlcNAc(b1-3)Gal(b1-4)GlcNAc
# In short: as §1
# [36] = molecular target: Gal(b1-4)GlcNAc(b1-3)Gal(b1-4)[Fuc(a1-3)]GlcNAc(b1-3)Gal(b1-4)[Fuc(a1-3)]GlcNAc
# In short: as §1
# [37] = molecular target: Gal(b1-4)GlcNAc(b1-3)GalNAc
# In short: as §1
# [38] = molecular target: Gal(b1-4)GlcNAc(b1-3)[Gal(b1-4)GlcNAc(b1-6)]Gal(b1-4)GlcNAc
# In short: as §1
binder,measurement,setting,value
"Spy0252 (Streptococcus pyogenes), Q9A1I9_STRP1 (protein) MNMKKLASLAMLGASVLGLAACGGKSQKEAGASKSDTAKTEITWWAFPVFTQEKAEDGVGTYEKKLIAAFEKANPEIKVKLETIDFTSGPEKITTAIEAGTAPDVLFDAPGRIIQYGKNGKLADLNDLFTEEFTKDVNNDKLIQASKAGDTAYMYPISSAPFYMALNKKMLKDAGVLDLVKEGWTTDDFEKVLKALKDKGYNPGSFFANGQGGDQGPRAFFANLYSSHITDDKVTKYTTDDANSIKAMTKISNWIKDGLMMNGSQYDGSADIQNFANGQTSFTILWAPAQPGIQAKLLEASKVDYLEIPFPSDDGKPELEYLVNGFAVFNNKDEQKVAASKTFIQFIADDKEWGPKNVVRTGAFPVRTSYGDLYKDKRMEKIAEWTKFYSPYYNTIDGFAEMRTLWFPMVQAVSNGDEKPEDALKAFTEKANKTIKKTQ",glycan array binding signal (z-score),Gal(b1-3)Gal,-0.008
same,glycan array binding signal (z-score),Gal(b1-3)Gal(b1-4)GlcNAc,0.413
same,glycan array binding signal (z-score),[1],-0.136
same,glycan array binding signal (z-score),Gal(b1-3)GalNAc,-0.232
same,glycan array binding signal (z-score),[2],-0.262
same,glycan array binding signal (z-score),[3],-0.187
same,glycan array binding signal (z-score),[4],2.83
same,glycan array binding signal (z-score),[5],0.638
same,glycan array binding signal (z-score),[6],-0.25
same,glycan array binding signal (z-score),Gal(b1-3)GlcNAc,-0.267
same,glycan array binding signal (z-score),[7],0.073
same,glycan array binding signal (z-score),[8],0.005
same,glycan array binding signal (z-score),[9],-0.215
same,glycan array binding signal (z-score),[10],-0.256
same,glycan array binding signal (z-score),[11],-0.267
same,glycan array binding signal (z-score),[12],-0.271
same,glycan array binding signal (z-score),[13],1.86
same,glycan array binding signal (z-score),[14],0.612
same,glycan array binding signal (z-score),[15],-0.211
same,glycan array binding signal (z-score),[16],-0.266
same,glycan array binding signal (z-score),[17],-0.263
same,glycan array binding signal (z-score),[18],-0.252
same,glycan array binding signal (z-score),[19],-0.262
same,glycan array binding signal (z-score),[20],-0.265
same,glycan array binding signal (z-score),[21],-0.266
same,glycan array binding signal (z-score),[22],-0.085
same,glycan array binding signal (z-score),[23],-0.214
same,glycan array binding signal (z-score),Gal(b1-4)Glc,0.749
same,glycan array binding signal (z-score),Gal(b1-4)Glc6S,1.82
same,glycan array binding signal (z-score),Gal(b1-4)GlcNAc,-0.269
same,glycan array binding signal (z-score),[24],-0.254
same,glycan array binding signal (z-score),[25],-0.272
same,glycan array binding signal (z-score),[26],-0.269
same,glycan array binding signal (z-score),[27],-0.211
same,glycan array binding signal (z-score),[28],-0.244
same,glycan array binding signal (z-score),[29],-0.272
same,glycan array binding signal (z-score),[30],-0.242
same,glycan array binding signal (z-score),[31],-0.258
same,glycan array binding signal (z-score),[32],-0.277
same,glycan array binding signal (z-score),[33],-0.112
same,glycan array binding signal (z-score),[34],-0.253
same,glycan array binding signal (z-score),[35],-0.277
same,glycan array binding signal (z-score),[36],-0.271
same,glycan array binding signal (z-score),[37],-0.267
same,glycan array binding signal (z-score),[38],-0.27
